This list was built around the results that the source calls inconclusive (neither active nor inactive); the mix of calls is not that of the screen. Potencies of inconclusive entries are left out as doubtful fits. The source holds several records for some structures; these can differ, active in one and inactive in another. Calls of active or inactive are those of the source. Calls follow the shape of the dose curve; as a rule, active = well fitted cell-killing curve with a large enough effect in the repeat runs; inconclusive = weak or mixed curves, or effect the other way; inactive = no such curve, though single readings can be large or run the other way.
Test: qHTS assay to identify small molecule antagonists of the sonic hedgehog signaling (Shh) pathway - cell viability counter screen (AID 1259367); also: nearly all actives have a fitted effect of over 55% in size
Details: NIH/3T3 Gli1-Luc viability, CellTiter-Fluor, 24 h; series mostly up to 92.4 µM
In short: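 Cells: 3T3 Gli1-Luc, 2,000/well, 4 hr pre-incubation. Compounds in DMSO, then conditioned medium. Incubation 24 hr, 37C, 5% CO2. CellTiter-Fluor at 23 hr, 1 hr, fluorescence.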
Potency is read from the fitted curve at half-maximal effect; tags tell the direction and shape of the fitted curve.

Structure (SMILES) | Potency
CN1CCN(C2=Nc3ccccc3Oc3ccc(Cl)cc32)CC1 | inconclusive [cytotoxic, partial curve]
CC[C@H]1CC[C@H](NCc2cc3c(cc2OC)[C@H]2C[C@H]2C(=O)N3C)[C@H](c2ccccc2)N1 | active: 8.63 µM
COc1cc2c(cc1OC)-c1cc(=Nc3c(C)cc(C)cc3C)n(C)c(=O)n1CC2 | inconclusive [cytotoxic, single point]
CCCCCC(C)=O | active: 54.5 µM
Cc1occc1C(=O)Nc1ccc(C(=O)N2CCC(F)(F)/C(=C\C(=O)N3CCC(N4CCCCC4)CC3)c3ccccc32)cc1 | inconclusive [cytotoxic, partial curve]
CN(C)CCC(c1ccc(Cl)cc1)c1ccccn1 (stereo not given) | inconclusive [cytotoxic, full curve]
CCC1=C(C)CN(C(=O)NCCc2ccc(S(=O)(=O)NC(=O)NC3CCC(C)CC3)cc2)C1=O (stereo not given) | inactive
CC(=O)c1ccc2c(c1)N(CCCN(C)C)c1ccccc1S2 | inconclusive [cytotoxic, partial curve, poor fit]
CN(C)C(=O)NC1(c2ccccc2)CCN(CCC[C@]2(c3ccc(Cl)c(Cl)c3)CCCN(C(=O)c3ccccc3)C2)CC1 | inconclusive [cytotoxic, partial curve]
Oc1cc(O)c(Cl)cc1Cl | inactive

Reference: PubChem BioAssay (Tox21)
